Data reported in patent publication US20240190987A1, “Engineered EpCam Binding Antibodies” (TigaTX, priority 2021, published 2024).
“Also recorded” adds a separate entry of the source.

What was measured:
Type in all cases: in vivo
CD4+ T-cells = assay: Ab1060 cell surface binding to peripheral T-cells in cynomolgus macaques; details: 0.1 to 3.0 mg/kg IV, flow cytometry
Experimental: Cynomolgus macaques were injected with Ab1060 as a single intravenous infusion over 15 minutes at doses from 0.1 to 3.0 mg/kg (n=1 animals per dose level). Whole blood samples were collected at 1, 24, 48, 72, 96, 168, 192 and 240 hours post-infusion with potassium EDTA as the anticoagulant. The amount of surface-bound Ab1060 was detected using a fluorescent PE-conjugated anti-human IgG antibody measured by flow cytometry. The median fluorescence intensity (MFI) was normalized to the maximum MFI observed across all samples in the experiment.
Two male and two female cynomolgus macaques (Mauritius origin) were distributed to 4 groups (n=1 per group). Animals were fasted overnight prior to dosing. Antibodies were dosed in alert animals at Time=0 hr via intravenous infusion using an infusion pump over 15 minutes. A postdose flush of saline was administered at a volume of approximately 1 mL. Blood (200 μL) was sampled serially at 8 time points post-infusion (1, 24, 48, 72, 96, 168, 192 and 240 hr) with potassium EDTA as the anticoagulant, then washed by centrifugation, and blocked with TruStain FcX (BioLegend, San Diego, CA) prior to antibody staining. […] Data was analyzed with the FlowJo software package (BD Bioscience). […] Median fluorescence intensity (MFI) of the PE channel in each sample was calculated and expressed as a normalized value relative to the sample with the highest MFI.

[1] = Ab1060 pharmacokinetics in cynomolgus macaques; details: single IV infusion 0.1 to 3.0 mg/kg
Experimental: FIG. 45 depicts the pharmacokinetic profile of a αCD3 T-LITE antibody in cynomolgus macaques. Cynomolgus macaques were injected with Ab1060 as a single intravenous infusion over 15 minutes at doses from 0.1 to 3.0 mg/kg (n=1 animals per dose level). Blood samples were collected at 1 hr, 3 hr, 6 hr, 1 d, 2 d, 3 d, 4 d, 5 d, 6 d, 7 d, 8 d, 9 d, and 10 d post-infusion with potassium EDTA as the anticoagulant, then processed to plasma and frozen. Antibody concentrations in plasma were measured using an ELISA specific for human IgG.
Two male and two female cynomolgus macaques (Mauritius origin) were distributed to 4 groups (n=1 per group). Animals were fasted overnight prior to dosing. Antibodies were dosed in alert animals at Time=0 hr via intravenous infusion using an infusion pump over 15 minutes. A postdose flush of saline was administered at a volume of approximately 1 mL. Blood (400 μL) was sampled serially at 13 time points post-infusion (1 hr, 3 hr, 6 hr, 1 d, 2 d, 3 d, 4 d, 5 d, 6 d, 7 d, 8 d, 9 d, and 10 d) with potassium EDTA as the anticoagulant, then processed to plasma and frozen. Plasma concentrations were quantified using an anti-human IgG sandwich ELISA that was developed and qualified in-house as described above. Pharmacokinetic parameters were calculated using the Phoenix WinNonLin software package (Certara, Princeton, NJ).

[2] = Tolerability (body weight) in transgenic B-hCD3E mice; details: single IV dose: Ab1062 1 mg/kg, Ab1060 10 mg/kg; up to 5 days
Experimental: FIG. 47 depicts changes in body weight and plasma cytokine levels in B-hCD3E transgenic mice treated with a single dose of the αCD3 T-LITE antibody or a control TCE. The control TCE contains an anti-mouse EpCAM Fab instead of the LS2B domains, and would therefore be expected to redirect T-cells to target endogenous EpCAM-expressing tissues. Mice were injected with Ab1062 or Ab1060 as a single bolus intravenous injection at doses of 1 or 10 mg/kg, respectively (n=4 animals per dose level). Body weights were measured 3 and 5 days post-injection. Whole blood samples were collected at −96, 2, 6, 24, 72, and 120 hours relative to the time of injection, with potassium EDTA as the anticoagulant. The concentration of 18 cytokines in the plasma were measured using a bead-based multiplex assay.
Transgenic mice expressing the extracellular domain of the human CD3E gene were used to assess the tolerability of a CD3 T-LITE incorporating the SP34v68-5 clone and LS2B Fab R5M2 (Ab1060) (FIG. 47). A separate group of mice was injected with a surrogate conventional TCE incorporating the anti-mouse the SP34v68-5 clone and the anti-mouse EpCAM clone G8.8 (Ab1062) as a positive control for T-cell activation. […] The body weight loss associated with Ab1062 was correlated with a spike in cytokine release into the peripheral blood, as measured by a multiplexed cytokine assay. […]

B1: Ab1060: CD3 T-LITE incorporating the SP34v68-5 clone and LS2B Fab R5M2 (protein)
light: DIQMTQSPSSLSASVGDRVTITCRASQSVSSAVAWYQQKPGKAPKLLIYSASSLYSGVPSRFSGSRSGTDFTLTISSLQPEDFATYYCQQGGYSLITFGQGTKVEIKRTVAAPSVFIFPPSDSQLKSGTASVVCLLNNFYPREAKVQWKVDNALQSGNSQESVTEQDSKDSTYSLSSTLTLSKADYEKHKVYACEVTHQGLSSPVTKSFNRGEC
heavy 1: EVQLVESGGGLVQPGGSLRLSCAASGFTFNTYAMNWVRQAPGKGLEWVARIRSKYNNYATYYADSVKGRFTISRDDSKSILYLQMNSLRAEDTAVYYCVRHGNFGNSYVSWFAYWGQGTLVTVSSGGGGSGGGGSGGGGSDIQVTQSPSSLSASVGDRVTITCRSSTGAVTTSNYANWVQQKPGKAFKGLIGGTNKLAPGVPSRFSGSLSGDDATLTISSLQPEDFATYYCALWYSNLWVFGQGTKLEIKGGGGS[human IgG1 Fc with changes left out]
heavy 2: EVQLVESGGGLVQPGGSLRLSCAASGFDFSSYSIHWVRQAPGKGLEWVASISPYYGSTYYADSVKGRFTISADTSKNTAYLQMNSLRAEDTAVYYCARYYEWYKYDLYAGSLGFDYWGQGTLVTVSSASTKGPSVFPLAPSSKSTSGGTAALGCLVKDYFPEPVTVSWNSGALTSGVHTFPAVLQSSGLYSLSSVVTVPSSSLGTQTYICNVNHKPSNTKVDKKVEPKSCDKTHTGGGGSGGEVQLVESGGGLVQPGGSLRLSCAASGFDFSSYSIHWVRQAPGKGLEWVASISPYYGSTYYADSVKGRFTISADTSKNTAYLQMNSLRAEDTAVYYCARYYEWYKYDLYAGSLGFDYWGQGTLVTVSSASTKGPSVFPLAPSSKSTSGGTAALGCLVKDYFPEPVTVSWNSGALTSGVHTFPAVLQSSGLYSLSSVVTVPSSSLGTQTYICNVNHKPSNTKVDKKV[human IgG1 Fc with changes left out]
modifications: REGION 1..214: note = Ab1060 Hole LC; REGION 1..482: note = Ab1060 Knob HC; REGION 1..699: note = Ab1060 Hole HC
notes: CD3 T-LITE incorporating the SP34v68-5 clone and LS2B Fab R5M2
binding to T-cells in peripheral blood after dosing (CD4+ T-cells): confirmed; also recorded: dose-dependent binding
plasma half-life [1]: 4 to 6 days
body weight change / tolerability [2]: no evidence of body weight loss; also recorded: did not
